According to the supplement of paper PMC8728848:
This is one part of the list.

Tests used:
Assay in all cases: glycan array binding signal (z-score within array); higher = stronger binding
Conditions in all cases: glycan notation: IUPAC condensed, linker removed
[1] = target: Gal(b1-4)GlcNAc(b1-3)GalNAc
Method in brief: (§1)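 Glycan array data came from 3228 arrays in the Consortium for Functional Glycomics database, and only arrays with an available protein sequence were kept. Glycan names were put into IUPAC-condensed notation, and columns mapping to the same glycan were averaged. The binding signal is a within-array Z-score, averaged across arrays of one protein sequence run at different concentrations or buffers and across linkers. A negative Z-score can be read as non-binding.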

[2] = target: Gal(b1-4)GlcNAc(b1-3)[Fuc(a1-3)GlcNAc(b1-6)]Gal(b1-4)Glc
Method in brief: as §1

[3] = target: Gal(b1-4)GlcNAc(b1-3)[Gal(b1-4)GlcNAc(b1-6)]Gal(b1-4)GlcNAc
Method in brief: as §1

[4] = target: Gal(b1-4)GlcNAc(b1-3)[Gal(b1-4)GlcNAc(b1-6)]GalNAc
Method in brief: as §1

[5] = target: Gal(b1-4)GlcNAc(b1-3)[GlcNAc(b1-6)]Gal(b1-4)GlcNAc
Method in brief: as §1

[6] = target: Gal(b1-4)GlcNAc(b1-6)Gal(b1-4)GlcNAc
Method in brief: as §1

[7] = target: Gal(b1-4)GlcNAc(b1-6)Gal(b1-4)GlcNAc(b1-6)GalNAc
Method in brief: as §1

[8] = target: Gal(b1-4)GlcNAc(b1-6)GalNAc
Method in brief: as §1

[9] = target: Gal(b1-4)GlcNAc(b1-6)[Gal(b1-3)]GalNAc
Method in brief: as §1

[10] = target: Gal(b1-4)GlcNAc(b1-6)[Gal(b1-4)GlcNAc(b1-3)]GalNAc
Method in brief: as §1

Gal(b1-4)GlcNAc6P = target: Gal(b1-4)GlcNAc6P
Method in brief: as §1

Gal(b1-6)Gal = target: Gal(b1-6)Gal
Method in brief: as §1

Gal3S(b1-3)GalNAc = target: Gal3S(b1-3)GalNAc
Method in brief: as §1

Gal3S(b1-3)GlcNAc = target: Gal3S(b1-3)GlcNAc
Method in brief: as §1

[11] = target: Gal3S(b1-3)[Fuc(a1-4)]GlcNAc
Method in brief: as §1

Gal3S(b1-4)Glc = target: Gal3S(b1-4)Glc
Method in brief: as §1

Gal3S(b1-4)Glc6S = target: Gal3S(b1-4)Glc6S
Method in brief: as §1

Gal3S(b1-4)GlcNAc = target: Gal3S(b1-4)GlcNAc
Method in brief: as §1

Gal3S(b1-4)GlcNAc6S = target: Gal3S(b1-4)GlcNAc6S
Method in brief: as §1

[12] = target: Gal3S(b1-4)[Fuc(a1-3)]Glc6S
Method in brief: as §1

[13] = target: Gal3S(b1-4)[Fuc(a1-3)]GlcNAc
Method in brief: as §1

[14] = target: Gal3S(b1-4)[Fuc(a1-3)]GlcNAc6S
Method in brief: as §1

Gal3S4S(b1-4)GlcNAc = target: Gal3S4S(b1-4)GlcNAc
Method in brief: as §1

B1: SJA (Sophora japonica) (protein)
chain: FLGLFNSGGYSSSYQIVAVEFDTYINEWDPKTRHIGIDINSINSTKTVTWGWENGEVAIVLISYKAATETLTVSLTYPSSQTSYILSAAVDLKSILPEWVRIGF
With B1 the “glycan array binding signal (z-score)” value [1] was -0.09, the “glycan array binding signal (z-score)” value [2] was 0.035 and the “glycan array binding signal (z-score)” value [3] was 0.112. The “glycan array binding signal (z-score)” value [4] was 0.035, the “glycan array binding signal (z-score)” value [5] was -0.02 and the “glycan array binding signal (z-score)” value [6] was -0.357. The “glycan array binding signal (z-score)” value [7] was -0.055, the “glycan array binding signal (z-score)” value [8] was -0.118 and the “glycan array binding signal (z-score)” value [9] was -0.108. For the same binder, the “glycan array binding signal (z-score)” value [10] was -0.159, the “glycan array binding signal (z-score)” value (Gal(b1-4)GlcNAc6P) was -0.274 and the “glycan array binding signal (z-score)” value (Gal(b1-6)Gal) was -0.22. For the same binder, the “glycan array binding signal (z-score)” value (Gal3S(b1-3)GalNAc) was -0.16, the “glycan array binding signal (z-score)” value (Gal3S(b1-3)GlcNAc) was -0.263 and the “glycan array binding signal (z-score)” value [11] was -0.235. For the same binder, the “glycan array binding signal (z-score)” value (Gal3S(b1-4)Glc) was -0.193, the “glycan array binding signal (z-score)” value (Gal3S(b1-4)Glc6S) was -0.048 and the “glycan array binding signal (z-score)” value (Gal3S(b1-4)GlcNAc) was -0.189. For the same binder, the “glycan array binding signal (z-score)” value (Gal3S(b1-4)GlcNAc6S) was -0.161, the “glycan array binding signal (z-score)” value [12] was 0.247 and the “glycan array binding signal (z-score)” value [13] was -0.24. The “glycan array binding signal (z-score)” value [14] was -0.166 and the “glycan array binding signal (z-score)” value (Gal3S4S(b1-4)GlcNAc) was -0.23.
